Laboratory results from the supplement of paper PMC3334620.
The full ranking holds about 33,000 sequences; the median of “E-score (-0.5 to 0.5)” is about -0.017, and the highest 2% start at about 0.3. Some of the results follow.

Biological target: T1, Sut1 (UniProt P53032)
T1 sequence: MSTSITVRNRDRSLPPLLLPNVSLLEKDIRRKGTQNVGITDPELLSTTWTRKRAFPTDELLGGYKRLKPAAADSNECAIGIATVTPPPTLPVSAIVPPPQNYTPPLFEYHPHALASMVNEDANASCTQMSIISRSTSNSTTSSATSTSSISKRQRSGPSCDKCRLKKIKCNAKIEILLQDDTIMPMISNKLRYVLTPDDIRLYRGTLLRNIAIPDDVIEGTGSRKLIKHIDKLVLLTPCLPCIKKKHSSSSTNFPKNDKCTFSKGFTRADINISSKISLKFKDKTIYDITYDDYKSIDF
Experiment: PBM E-score (8-mer binding enrichment) (E-score (-0.5 to 0.5)); higher = stronger / more preferred TF binding; most listed sequences are background and not binding sites
Settings: protein concentration: 200 nM; construct: GST-full length
Protocol: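 Universal 'all 10-mer' protein binding microarrays (Agilent AMADID 015681) probed with GST-tagged S. cerevisiae TFs (full-length or DBD) made by in vitro transcription/translation (PURExpress), about 100-200 nM. Bound TF was detected with fluorescent anti-GST. Each ungapped 8-mer (which stands for itself and its reverse complement) is scored by the PBM enrichment score (E-score), a modified Wilcoxon-Mann-Whitney statistic from -0.5 to +0.5, computed with the Universal PBM Analysis Suite. Scale: above 0.35 generally sequence-specific binding.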

Sequence	PBM E-score
ACATGCAG	-0.122
AGCAAGCC	-0.186
AAGCGTGA	-0.0725
CCGGATGA	0.143
CCTCGACC	-0.286
CTCAGCGA	-0.204
AACAAACT	0.197
CCACCCGG	-0.228
ACTCAAAG	0.0714
AGTGGTCA	-0.0841
ATGAGGTC	0.0148
CAAACGAA	0.116
GAGCATGA	-0.17
GAAGTATA	0.163
CCTGCACC	-0.117
CACGGTAC	-0.116
CATTATCC	0.078
AAAGATGG	0.00344
GCGTTCTA	0.109
ATCGTTTC	0.163
CCAGAACA	-0.0168
AAAACTAG	0.0495
GCAAAGCC	-0.285
TCTTGACA	0.0727
ACTAAGTG	0.0363

Sequence	PBM E-score
CGGGCGTA	-0.177
CGGTCTAA	0.0285
GAGGAGCA	-0.15
CGGAGCGC	0.118
GTTCTGAA	0.0848
CAGCACCA	-0.229
TAGGCTCA	-0.222
CGATGTTC	-0.192
GGTCCGGA	0.402
GAACAAGA	0.178
GCGGCGCA	-0.00306
ATTGGTGC	0.133
TAATAATA	0.282
CTATACAA	0.175
CACAACTG	-0.302
CTTGGAAC	0.0161
GGCAGCAC	-0.0985
CAGATCCG	0.235
AAATAGCC	0.0267
ATCCAGAT	-0.00444
TCAGCACA	0.0304
ACGGATGA	0.0548
CCCCTTCA	-0.256
ACGTTAGT	0.122
GGCTAGGA	-0.172

Sequence	PBM E-score
GTTCGGAA	0.289
CTCCATGC	-0.29
CCGATCGG	0.232
AATCCGCC	-0.0498
AAATGCTT	0.0544
GAGTCGGC	0.00136
AGGGTGTG	-0.207
ACCTTCGT	-0.0335
CTCTTTCA	-0.0293
CGTCAGAA	-0.194
GCGTACCA	-0.194
AGTGGCGC	-0.0966
GGCAGACC	-0.261
ACTAGCCT	0.0941
ACACCCCT	-0.232
ACCAGGAA	-0.00996
AACCTGGT	-0.129
ACCCCGCC	0.0662
ACCAACAG	-0.297
CCCGCCCA	-0.205
CAATCTGA	0.0772
CAGCTCAC	-0.0502
CTTTGTCC	-0.0272
CCTCGGGC	-0.209
AACGACGG	-0.0621

Sequence	PBM E-score
CGCGAGTA	-0.0234
CCACATTA	-0.101
ACGGAGGA	0.0201
CATTGTGA	-0.0602
CCAGGGGC	-0.412
CTCCCCCA	-0.412
CTCACCTC	-0.0995
AAACTGTG	0.0297
GGCCTCAC	-0.136
AGGCGCTC	-0.145
GATGACAA	0.137
GCGAACAC	-0.158
CCTTGCAG	-0.143
TAACTCAA	0.0942
ATATGCGA	0.0338
ATCTGCTG	-0.143
ATACGACA	0.0367
ATAAGAAT	0.168
AGCAACGC	0.0167
AAAGGCCA	-0.0689
ACCAGTAA	0.0966
ACATTACA	0.186
AAAGCTAT	0.0634
CTGGAAGC	-0.319
AATGCACC	0.02

Sequence	PBM E-score
CATAGAGC	-0.253
AATTAACC	0.219
GAACGCCA	-0.0274
TGCTTGAA	0.102
ACCCGGTA	-0.00409
CTGGGTTA	0.0488
CAAGTGAC	-0.0165
CTGAGGTC	-0.347
CCTCTTGC	-0.257
GAGGTTCC	-0.199
GATCCATA	0.0449
ACTGACTC	-0.00408
ACAGCAGC	0.0163
CACTCCAG	-0.176
CAGCTGAG	-0.136
CGAGTCAG	-0.00182
CTATACCA	-0.0418
AACTTGAT	0.27
GGACGTAC	-0.142
AGTAGTAT	0.0418
GAAGTAAA	0.223
TCATGGGA	-0.0888
AGTGAGAC	-0.0785
CTAGGCGC	-0.12
CGACGGCG	-0.269

Sequence	PBM E-score
CGCCAATA	-0.102
ACTTACCT	-0.113
AATGCCTA	0.0556
GTCCAAAA	0.189
AATCGTGC	0.161
CAACGAGC	-0.303
AAAAAGTC	0.242
AACGACAT	0.0198
TGCAGACA	-0.113
AAGGCTGC	-0.11
CTTTCAGA	0.0565
CTGAACCA	-0.151
TGAATCCA	0.103
ACCAGACA	-0.0664
CTAGTCGA	0.103
GACCATGA	-0.257
GCGCTTCA	0.0784
AAGACCAA	0.0228
AAGGGGCG	-0.252
GAGACTGC	-0.128
ACTGATTA	0.111
TCGTGTCA	-0.0574
CCCTGCGC	-0.226
AAACTATG	0.0992
ACGTTAAA	0.206

Sequence	PBM E-score
CCACGTAG	-0.385
CGTGCTTC	-0.0573
CGTTAAAG	0.0442
AACTTATC	0.164
ATCACCCC	-0.0853
CTAAAAAC	0.112
CCTAGCCG	-0.0997
AGCCCAGA	-0.172
GCGCGTCC	-0.172
GAGGTTCA	-0.0647
ACAACAGA	0.00764
TACCCGAA	0.0219
CGCACCTA	-0.26
ACATATCG	0.052
ATAGGCAG	0.0777
CGTACTTC	0.115
AAACCGAT	0.0387
CAGCGGCC	-0.151
GCGGCTCA	-0.112
CGTTATAG	0.0722
ATGTGGTG	-0.0634
TGAGAAAA	0.131
GCACTGCC	-0.0548
CATTTCTC	0.198
AACCCCCA	-0.38

Sequence	PBM E-score
AGAGTGAA	0.0327
AGAGGCGC	-0.201
ACGACCAC	0.0155
ACGCCCCT	-0.31
GGCTAGAA	-0.0641
ACGTTCCT	-0.122
CTAACAAG	-0.0947
GGAATACA	0.157
ACCAAGAG	-0.181
CGGCGCCC	-0.146
CGGCTCTC	-0.0619
ATCGGGGA	-0.00797
AGCGGATA	0.033
GAGCTCAA	0.118
CTTTGGGA	0.0861
AGGATCCT	-0.0676
CTGTACAG	-0.0613
CCCCACAA	-0.154
ATGCTTGC	-0.0788
ACATTACG	0.113
CGAAGCTA	-0.0647
GCAACAAA	0.152
CGCCTCTA	-0.128
CCGACAGA	0.172
GAACGCCC	-0.0493

Sequence	PBM E-score
ACTGGAAG	-0.00568
GCCTAAGC	-0.168
ATGTGATA	0.0582
AATTACGT	0.118
AATTTGGC	0.0804
ACGAGCGC	-0.105
ATCCCCCA	-0.366
CAGCAGTA	-0.127
GCATTACC	-0.0192
CAGCTCTC	-0.108
AAATCTTG	0.0105
TAGGACTA	0.0501
AAGACGGG	-0.0207
AGACGGAC	0.129
GACCGTAA	-0.0628
TAGCATAA	0.0326
CACAATAG	-0.024
GGCCGGAA	0.0761
AACGTCGA	0.0935
CAAACGTG	-0.0235
ACATATGG	0.0306
CTACAACC	-0.0138
GGCGCAGA	-0.282
CTCGCTTC	0.0401
ACGGTAGC	-0.0845

Sequence	PBM E-score
AAGTGCGG	0.0614
CCATTGTC	0.154
ACATGTTC	-0.0202
GCCAGTAA	-0.0168
ACAATAGA	0.0251
AGCCGTAG	0.0346
ATTGGGGG	-0.229
GGCCGGCA	0.00533
TGACCACA	-0.0296
ATTCCAAA	0.0401
CGATAGAG	-0.145
CGCACTCA	-0.0581
ACTTCTAG	-0.208
AAACATAG	-0.136
GAGGCCGA	-0.179
CGTCAGGC	-0.212
CTCCCACC	-0.34
CGTGCTCA	-0.0244
CCACGACG	-0.146
GATGCCAA	-0.177
CGTCTAGA	-0.0457
ACTTTATG	0.175
GCGTACGA	0.0735
TAATAGGA	0.144
AATTGTGC	0.113

Sequence	PBM E-score
CGGCCGCC	-0.05
CCTATCGA	-0.0541
ATAAGTAT	0.19
CCGCTCCC	-0.299
AGACTCAC	-0.09
ATATCTAG	0.0278
CAGGTTAG	-0.082
CTTCGTTA	0.0191
TCTTTAAA	0.209
AGGGTTTA	-0.101
ATTGAGGG	-0.188
GTAGCGAA	0.0328
CAATTATC	0.197
CAGCGCCA	-0.239
ATTCGCCG	0.231
CGACACCA	-0.0673
CGCGTAAG	0.0366
AGTACCTA	0.143
TATGAATA	0.176
CACTTTCA	0.0516
GTAAACAC	0.09
AGTTAACA	0.209
GACCGTCA	-0.173
GCATGACC	-0.192
AACAGCAT	-0.144

Sequence	PBM E-score
CCATACCG	-0.161
ATAGGGCA	-0.177
TCGGAAAA	0.372
CGTGCACA	-0.1
AGTTCGAC	-0.0297
AATGACCA	0.0457
ATGCATTC	0.136
GCTCCGCA	0.227
GCAACTTA	0.146
CCCTCGAA	-0.244
CATAGCCG	0.0749
ACCACTAC	0.00567
GTGCTAAA	0.0439
CCAGGGCA	-0.317
CCCAGGAG	-0.214
AGTACTTA	0.0504
ATAAGGTC	0.0762
ACGGGATA	-0.11
AGCCAACG	0.0155
CCTCGAGC	-0.13
CAGAACAA	0.208
GACATATC	0.0485
AGCGAACT	-0.0285
CCGCGCGG	0.232
CGGGTCCA	-0.123

Sequence	PBM E-score
AGGGTGCG	-0.249
ACAATACA	0.137
AGAGAGCA	0.00221
CGATACAA	0.112
TTAACAAA	0.209
ACCAATAC	-0.00928
GCGTCGCA	-0.0968
CACAAATA	0.13
TCCCGCGA	-0.0158
CAAAACTC	0.203
GGCGAACC	-0.106
CGCCGTAG	0.0361
GAGATATC	0.146
ACTTATGC	0.0564
CGAATTAC	0.0352
GCCCGCTA	-0.241
TGATGACA	-0.0345
CCCCATTC	-0.161
TAATCATA	0.156
CGAGTTCC	0.0377
GAAACTGC	-0.0799
GGAGGTAC	-0.0905
ATGCCACA	0.0484
AGGAGCGG	-0.353
AAGGCCAC	-0.194

Sequence	PBM E-score
GCCGGGAC	-0.222
GACGCCGA	0.0159
CCACCAGC	-0.0754
ACGATCAG	-0.0635
TGAAAGCA	0.148
CTGAGCCA	-0.123
AACATCTC	0.142
GTAACCTA	0.192
GCTCCAAC	0.00623
AAACTTTG	0.169
AACGAAAC	0.15
GGGCCCTA	-0.227
GGCGTCAC	-0.181
CCTAAAAC	-0.00765
CTTCCACA	0.097
AGGATTAC	0.0222
ATCGCCAC	-0.0794
TACTCATA	-0.033
ATGTTAAG	0.0757
